Data from patent publication US5256700A (priority 1990, dated 1993).

Assays:
[1] = system: Salmonella typhimurium TA 102; test: microbe, parasite or virus in culture; details: Salmonella enterica
[2] = system: Salmonella typhimurium TA 102
Staphylococcus aureus = details: cited from earlier work

Row | Compound | IC50 [1] | IC50 [2] | anticarcinogenic activity higher by a factor than that of ascorbic acid [2] | anticarcinogenic activity higher by a factor than that of carnosol [2] | antibiotic activity against Staphylococcus aureus (Staphylococcus aureus) | anticarcinogenic activity compared with that of ascorbic acid [2]
1 | O=C1O[C@H]([C@@H](O)CO)C(O)=C1O [Ascorbic acid, ascorbic acid] | 2700 µM |  |  |  |  | 
2 | CC(C)c1cc2c(c(O)c1O)[C@@]1(C(=O)O)CCCC(C)(C)[C@@H]1CC2 [Carnosic acid] | 150 µM | 0.3 mg | approximately 15 | 50 | antibiotic against Staphylococcus aureus | 
3 | CC(C)c1cc2c(c(O)c1O)[C@@]13CCCC(C)(C)[C@@H]1C[C@@H]2OC3=O [Carnosol, carnosol, reference compound] | 9300 µM | 17.8 mg |  |  |  | slightly weaker, but of an order comparable with that of ascorbic acid

Like-named read-outs stand apart in the source and are kept apart here.
